Data as given in PubChem BioAssay AID1508623 (National Center for Advancing Translational Sciences (NCATS), 2021).
The whole screen tested about 48,000 compounds, of which about 450 (0.94%) were called active. Inconclusive results, whose numbers are uncertain, are shown with a selection of clear calls. The call rests on the fitted dose curve; in most records, active means well fitted inhibition curve with a large enough effect; inconclusive means small, poorly fitted or top-dose-only effect; inactive means no such curve, though single readings can be large or run the other way. Potencies beside an inconclusive call are fits to weak or partial responses and may not hold up.

Assay: Primary qHTS for Identification of Small Molecule Inhibitors of Huntingtin Promoter Activity; further: nearly all actives have a fitted effect of over 50% in size
Settings: HEK293 HTT promoter firefly luciferase reporter (activity 0% = vehicle and -100% = no light), 24 h; series mostly up to 57.5 µM
How it was run: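 HEK293 luciferase promoter-reporter cells (2,500/well) plated 24 h, then compounds added at up to 57.5 uM final for 24 h at 37 °C. Firefly luminescence by Dual-Glo, normalized to vehicle (0%) and zero RLU (-100%).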
Potency means the concentration at half of the fitted maximal effect; tags describe the fitted curve by direction and shape.

Potency, inactive:
CCN(CC)C(C)CN1c2ccccc2Sc2ccccc21 (stereo not drawn)
O=C(NCCc1ccccc1)c1ccc(Nc2nc3ccccc3n3nnnc23)cc1
CCN1CCOC(=O)C1CC(=O)Nc1ccc(Br)cc1 (stereo not drawn)
COc1ccccc1-c1nc(SCC(=O)NCc2ccccc2)c2c(=O)n(C)c(=O)n(C)c2n1
Cc1ccc2cccc(NC(=O)C(C)Oc3ccc(Cl)cc3Cl)c2n1 (stereo not drawn)
C[C@]12CCC(=O)C=C1[C@@H]1CC1[C@H]1[C@H]3[C@@H]4C[C@H]4[C@@]4(CCC(=O)O4)[C@@]3(C)CC[C@H]12 (stereo partly drawn)

Potency, inconclusive:
CCOc1ccc(NC(=O)N2CCN(c3ccc(Cl)c(Cl)c3)CC2)cc1 11.2 µM [inhibitor, partial curve, poor fit]
COc1ccc(Cl)cc1NC(=O)Cn1ccn(-c2cc(C)cc(C)c2)c(=O)c1=O 10 µM [inhibitor, partial curve]
CCOc1cccc(CNC(=O)c2ccc(N3CCCC3)c(NC(=O)NCc3ccccc3)c2)c1 28.2 µM [inhibitor, partial curve]
COc1ccc(-c2noc(CSc3nnc(C)n3-c3cccc(C)c3)n2)cc1 39.8 µM [inhibitor, single point]
COc1cc(C(=O)NCCc2csc(-c3ccc(Cl)cc3)n2)cc(OC)c1OC 39.8 µM [inhibitor, single point]
CCOC(=O)c1c(NC(=O)CSc2cn(CCNC(=O)c3ccc(OC)cc3)c3ccccc23)sc2c1CCCC2 35.5 µM [inhibitor, partial curve, poor fit]
COc1ccc(C2c3c(n(C)c4ccccc34)C(=O)N2CC(=O)Nc2cccc(Cl)c2)cc1 (stereo not drawn) 8.91 µM [inhibitor, full curve]
COc1ccc(OC)c(C2=NS(=O)(=O)N(C)C(C(=O)Nc3ccc(F)cc3F)=C2)c1 25.1 µM [inhibitor, partial curve, poor fit]
N#Cc1nc(-c2ccc(COc3ccc(Cl)cc3)o2)oc1N1CCC(C(N)=O)CC1 31.6 µM [inhibitor, single point]
COc1ccc(OC)c(S(=O)(=O)NCCS(=O)(=O)N2CCN(c3ccccc3)CC2)c1 39.8 µM [inhibitor, single point]
COc1cccc(CNC(=O)c2cccc(-n3c(C)nc4cccnc43)c2)c1OC 11.2 µM [inhibitor, partial curve, poor fit]
CCCOc1ccc(C2c3c(-c4c(C)cc(C)cc4O)n[nH]c3C(=O)N2CCO)cc1 (stereo not drawn) 8.91 µM [inhibitor, partial curve]
COc1ccc(-n2c(-c3ccco3)nc3c(cnn3-c3ccccc3Cl)c2=O)cc1 39.8 µM [inhibitor, single point]
COc1ccc(C)cc1NC(=O)CC1NCCNC1=O (stereo not drawn) 3.16 µM [inhibitor, partial curve, poor fit]
COc1ccc(OC)c(CNS(=O)(=O)c2ccc(-c3coc(C)n3)cc2)c1 39.8 µM [inhibitor, single point]
CCCCCOc1ccccc1/C(=C\SC)n1ccnc1 12.6 µM [inhibitor, partial curve, poor fit]
COc1ccc(C2C=C(c3ccccc3)Nc3nc(NC(=O)/C=C/c4ccccc4Cl)nn32)cc1 (stereo not drawn) 6.31 µM [inhibitor, single point]
COC(=O)c1ccccc1NC(=O)Cn1c(=O)cc(C)c2c(C)nn(C)c21 28.2 µM [inhibitor, partial curve, poor fit]
Cc1c(C(=O)O)oc2c1-c1nn(Cc3ccc(Cl)cc3)cc1CC2 39.8 µM [inhibitor, single point]
COc1ccccc1C(=O)Nc1c(C(=O)Nc2ccccc2F)oc2ccccc12 31.6 µM [inhibitor, partial curve, poor fit]
COc1cccc(CNS(=O)(=O)c2ccc3c(c2)C(C(C)C)C(=O)N3)c1 (stereo not drawn) 35.5 µM [inhibitor, partial curve, poor fit]
Cc1cc(Cl)ccc1OCC(=O)N1CCC(c2nc3ccccc3s2)CC1 31.6 µM [inhibitor, single point]
O=C(Nc1cccc(-c2nc3ccccc3o2)c1)C(F)(F)F 39.8 µM [inhibitor, single point]
Cc1ccn2c(Nc3ccc(C(C)C)cc3)c(-c3cccnc3)nc2c1 35.5 µM [inhibitor, single point]
CCc1cccc(NC(=O)c2ccc(NC(=O)N3CCSc4ncccc43)cc2)c1 17.8 µM [inhibitor, partial curve, poor fit]
Cc1ccc(NC(=O)N2CCN(c3cc(-c4noc(C)n4)ccc3C)CC2)c(F)c1 39.8 µM [inhibitor, single point]
COC(=O)C1CCN(S(=O)(=O)c2ccc(N3CCCCS3(=O)=O)cc2)CC1 8.91 µM [inhibitor, partial curve]
COc1ccc(CCN2C(=O)c3[nH]nc(-c4ccccc4O)c3C2c2ccc(OC)c(OC)c2)cc1 (stereo not drawn) 35.5 µM [inhibitor, single point]
CCOc1ccc(-n2c(SCC(N)=O)nc3c(oc4ccccc43)c2=O)cc1 31.6 µM [inhibitor, single point]
COc1ccccc1NC(=O)c1c(C)cc(C)nc1SCC(=O)Nc1cccc(C)c1 35.5 µM [inhibitor, single point]
CCc1cccc(CC)c1N(COC)C(=O)Cn1c(C)nc2ccccc21 14.1 µM [inhibitor, single point]
O=C(Nc1ccc(F)c(Cl)c1)C1Cc2ccccc2CN1S(=O)(=O)c1ccc(F)cc1 (stereo not drawn) 35.5 µM [inhibitor, partial curve, poor fit]
